The record followed here is the supplement of paper PMC4967469.

Compound in this assay: O=C1NC(=NCc2cccs2)S/C1=C\c1ccc2ncccc2c1 [RO-3306]
The experiment in a line: Viability of human cancer cell lines after 72 h of drug (GDSC screen). The conditions noted are these: top dose 5 µM; top dose inferred. As for the experimental part:
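Human cancer cell lines in 384-well plates, medium with 10% serum, drug for 72 h over a 256-fold dose range (nine 2-fold or five 4-fold steps up to the top dose). Adherent lines were fixed and stained with the nucleic acid dye Syto60, suspension lines read with resazurin; signal relative to control wells, capped at 0 and 100%. One two-parameter sigmoid per drug and line, fitted in a mixed model over all curves with the slope shared within a line.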

By IC50 is meant the dose at which the fit gives 50% viability; a fit beyond the top or the lowest dose is shown as a bound at that dose. AUC sums up the same curve from the lowest dose to the 256-fold higher top dose; the more sensitive the line, the further below 1. The top dose, if marked as inferred, comes from the curve model; the source does not state it. Some results are limits rather than exact numbers.

One may read the IC50 as the concentration at which inhibition is half-maximal. Take SK-N-SH (neuroblastoma, adherent): the AUC amounted to 0.888 and the half-inhibitory concentration (IC50) was more than 5 µM.

Turning to SK-OV-3 (ovary, adherent), the AUC was 0.97 and the half-inhibitory concentration (IC50) is more than 5 µM.

Regarding SK-PN-DW (Ewing sarcoma, adherent), the AUC was found to be 0.984 and the IC50 is more than 5 µM.

SK-UT-1 (soft tissue, adherent): the AUC was 0.96 and the 50% inhibitory concentration (IC50) is more than 5 µM.

In the case of SKG-IIIa (cervix, adherent), the AUC was 0.869 and the half-maximal inhibitory concentration (IC50) is more than 5 µM.

As for “SKM-1 (haematopoietic neoplasm, suspension)”, the AUC was determined as 0.929 and the concentration for half-maximal inhibition (IC50) is more than 5 µM.

Turning to SKN (uterus, adherent), the AUC was 0.929 and the half-maximal inhibitory concentration (IC50) is more than 5 µM.

Consider SKN-3 (head and neck, adherent), for which the AUC was 0.921 and the IC50 is more than 5 µM.

Turning to SLVL (B-cell lymphoma, suspension), the AUC was 0.986 and the IC50 is more than 5 µM.

Take SNB75 (glioma, adherent): the AUC came to 0.973 and the IC50 was more than 5 µM.

As to SNG-M (endometrium, adherent), the AUC amounted to 0.976 and the concentration for half-maximal inhibition (IC50) was more than 5 µM.

Consider SNU-61 (large intestine, adherent), for which the AUC amounted to 0.973 and the half-maximal inhibitory concentration (IC50) was more than 5 µM.

With SNU-81 (large intestine, adherent), the AUC is 0.947 and the concentration for half-maximal inhibition (IC50) was more than 5 µM.

Regarding SNU-182 (liver, adherent), the AUC was 0.893 and the IC50 is more than 5 µM.

For the cell line SNU-387 (liver, adherent), the AUC stood at 0.942 and the 50% inhibitory concentration (IC50) is more than 5 µM.

With SNU-407 (large intestine, adherent), the AUC is 0.914 and the IC50 was more than 5 µM.

On to SNU-423 (liver, adherent), for which the AUC is 0.948 and the concentration for half-maximal inhibition (IC50) was more than 5 µM.

As for SNU-449 (liver, adherent), the AUC amounted to 0.979 and the IC50 was more than 5 µM.

In the case of SNU-C1 (large intestine, suspension), the AUC was determined as 0.977 and the half-maximal inhibitory concentration (IC50) was more than 5 µM.

SNU-C2B (large intestine, adherent): the AUC came to 0.98 and the IC50 is more than 5 µM.

Take SNU-C5 (large intestine, adherent): the AUC was found to be 0.975 and the 50% inhibitory concentration (IC50) is more than 5 µM.

For the cell line SR (lymphoid neoplasm, suspension), the AUC worked out at 0.945 and the IC50 is more than 5 µM.

For the cell line ST486 (Burkitt lymphoma, suspension), the AUC amounted to 0.988 and the IC50 is more than 5 µM.

Consider STS-0421 (soft tissue, adherent), for which the AUC worked out at 0.983 and the IC50 was more than 5 µM.

Regarding SU8686 (pancreas, adherent), the AUC came to 0.981 and the IC50 is more than 5 µM.

On to SU-DHL-4 (B-cell lymphoma, suspension), for which the AUC came out at 0.997 and the IC50 is more than 5 µM.

On to SU-DHL-5 (B-cell lymphoma, suspension), for which the AUC is 0.993 and the concentration for half-maximal inhibition (IC50) is more than 5 µM.

Turning to SU-DHL-6 (B-cell lymphoma, suspension), the AUC turned out to be 0.868 and the IC50 came out at 2.71 µM.

Consider SU-DHL-8 (B-cell lymphoma, suspension), for which the AUC came out at 0.988 and the IC50 is more than 5 µM.

Take SU-DHL-10 (B-cell lymphoma, suspension): the AUC is 0.997 and the IC50 is more than 5 µM.

Consider SU-DHL-16 (B-cell lymphoma, suspension), for which the AUC is 0.996 and the half-inhibitory concentration (IC50) is more than 5 µM.

Regarding SUIT-2 (pancreas, adherent), the AUC worked out at 0.983 and the IC50 was more than 5 µM.

Consider SUP-B8 (B-cell leukaemia, suspension), for which the AUC was 0.937 and the IC50 is more than 5 µM.

Regarding “SUP-B15 (lymphoblastic leukaemia, suspension)”, the AUC stood at 0.986 and the half-maximal inhibitory concentration (IC50) was more than 5 µM.

Take SUP-HD1 (Hodgkin lymphoma, suspension): the AUC stood at 0.982 and the IC50 is more than 5 µM.

In the case of “SUP-M2 (anaplastic large cell lymphoma, suspension)”, the AUC is 0.942 and the IC50 is more than 5 µM.

With “SUP-T1 (T-cell lymphoblastic leukaemia, suspension)”, the AUC worked out at 0.979 and the concentration for half-maximal inhibition (IC50) was more than 5 µM.

With SW13 (adrenal gland, adherent), the AUC was 0.985 and the IC50 was more than 5 µM.

For the cell line SW48 (large intestine, adherent), the AUC turned out to be 0.976 and the IC50 was more than 5 µM.

Consider SW620 (large intestine, adherent), for which the AUC was 0.99 and the IC50 is more than 5 µM.

On to SW626 (ovary, adherent), for which the AUC turned out to be 0.982 and the IC50 is more than 5 µM.

Take SW684 (fibrosarcoma, adherent): the AUC stood at 0.983 and the IC50 is more than 5 µM.

As to SW756 (cervix, adherent), the AUC was 0.891 and the concentration for half-maximal inhibition (IC50) was more than 5 µM.

Regarding SW780 (bladder, adherent), the AUC was 0.974 and the IC50 is more than 5 µM.

Consider “SW900 (lung squamous cell carcinoma, adherent)”, for which the AUC is 0.954 and the concentration for half-maximal inhibition (IC50) was more than 5 µM.

Regarding SW948 (large intestine, adherent), the AUC amounted to 0.973 and the half-maximal inhibitory concentration (IC50) is more than 5 µM.

Take SW954 (urogenital system, adherent): the AUC amounted to 0.9 and the IC50 was more than 5 µM.

Turning to SW962 (urogenital system, adherent), the AUC was found to be 0.967 and the IC50 was more than 5 µM.

As for SW982 (soft tissue, adherent), the AUC is 0.985 and the IC50 is more than 5 µM.

Turning to “SW1271 (small cell lung carcinoma, adherent)”, the AUC was determined as 0.969 and the IC50 is more than 5 µM.

On to SW1417 (large intestine, adherent), for which the AUC was 0.982 and the half-maximal inhibitory concentration (IC50) was more than 5 µM.

As for SW1573 (lung adenocarcinoma, adherent), the AUC stood at 0.939 and the IC50 is more than 5 µM.

Consider SW1710 (bladder, adherent), for which the AUC was 0.721 and the 50% inhibitory concentration (IC50) is 1.35 µM.

Consider SW1783 (glioma, adherent), for which the AUC turned out to be 0.976 and the IC50 is more than 5 µM.

As for Saos-2 (osteosarcoma, adherent), the AUC is 0.978 and the IC50 is more than 5 µM.

As to SiHa (cervix, adherent), the AUC was 0.942 and the 50% inhibitory concentration (IC50) was more than 5 µM.

Regarding T47D (breast, adherent), the AUC came to 0.952 and the IC50 was more than 5 µM.

For T84 (large intestine, adherent), the AUC was found to be 0.989 and the half-maximal inhibitory concentration (IC50) is more than 5 µM.

As to T98G (glioma, adherent), the AUC came to 0.741 and the IC50 stood at 1.44 µM.
